US20230330254A1 (Regeneron Pharmaceuticals, Inc., priority 2022, published 2023)
Marks after values point to notes of the source that are not given here.

How the values were obtained:
[1] = Blood glucose in diet-induced obese GLP1R humanized mice (Example 12); assay type: in vivo; settings: 25 mg/kg s.c. once on day 0
Source text: (§1) To determine body weight and blood glucose lowering effects of three anti-GLP1R antibody-tethered-drug conjugates (ATDCs) in obese animals, mice homozygous for the expression of human GLP1R in place of mouse GLP1R (referred to as GLP1R humanized mice) were placed on high-fat diet (60% kcal % fat) for 6 months. Forty-four, 9-month-old male, GLP1R humanized mice were stratified into six groups of five to eight mice, based on their day 0 body weights. After the stratification, each group was subcutaneously administered with 25 mg/kg of COMP anti-GLP1R mAb1-LP4 (n=8), anti-GLP1R mAb3-LP11 (n=8), anti-GLP1R mAb4-LP11 (n=5), control anti-GLP1R mAb (n=7), isotype control mAb ATDC (n=8) or reference compound (n=8) on day 0.
(§2) The control anti-GLP1R mAb is antibody 5A10 described in US Publication No. US20060275288A1, which is incorporated herein by reference in its entirety. […] COMP anti-GLP1R mAb1-LP4 comprises the same control anti-GLP1R mAb with a N-terminal heavy chain Q-tag.
(§3) On days three and seven post administration and weekly from day fourteen to day fifty-six, body weights of the animals were recorded, and their blood glucose levels were measured with a handheld glucometer. Mean±SEM of percent changes in body weight from day 0 at each time point was calculated for each group and are shown in Table 14. Statistical analyses were performed by two-way ANOVA followed by Bonferroni post-hoc tests, comparing the control antibody group to the other five groups.

[2] = Body weight in diet-induced obese GLP1R humanized mice (Example 12); assay type: in vivo; settings: 25 mg/kg s.c. once on day 0
Source text: as §1, §2, §3

HEK293/CRE-Luc cells [3] = test: Luciferase reporter assay, HEK293/CRE-Luc cells without hGLP1R (Example 11); assay type: cell-based, human; settings: Table 12; Experiment D
Source text: To test the activity of GLP1R agonist payloads, GLP1R agonist linker-payloads (LPs), and anti-GLP1R antibody tethered drug conjugates (ATDCs) of the disclosure, a cell-based cAMP responsive luciferase reporter assay was developed. To generate the assay cell line, the firefly luciferase gene was placed under the control of a cAMP response element (CRE) located upstream of a minimal promoter and transfected into HEK293 cells and referred to herein as HEK293/CRE-Luc cells.
Three-fold serial dilutions of free payloads or LPs were prepared in 100% DMSO, transferred to fresh assay media, and added to the cells at a final constant DMSO concentration of 0.2%. The last well in the plate served as a blank control containing only the assay media and 0.2% DMSO (untreated well) and was plotted as a continuation of the 3-fold serial dilution. Four to six hours later, luciferase activity was determined after the addition of One-Glo™ reagent (Promega, Cat #E6130) to each well. Relative light units (RLUs) were measured on an Envision luminometer (PerkinElmer) and EC50 values were determined using a four-parameter logistic equation over a 12-point dose response curve (GraphPad Prism). The signal to noise (S/N) was determined by taking the ratio of the highest RLU on the dose response curve to the RLU in the untreated wells.

[4] = target: T1, hGLP1R-MMH (N-terminal region of human GLP1R) (Homo sapiens, UniProt P43220); test: Biacore binding kinetics (surface plasmon resonance); settings: 25° C.
T1 construct: the N-terminal ectodomain of human GLP1R expressed with a myc-myc hexahistidine tag
Procedure: The equilibrium dissociation constant (KD) for GLP1R binding to different unconjugated GLP1R monoclonal antibodies (mAbs) or to GLP1R antibody tethered drug conjugates (ATDCs) was determined using a real-time surface plasmon resonance biosensor using a Biacore 3000, Biacore S200, Biacore 4000, Biacore T-200, or a Sierra Sensor MASS-2 instrument. All binding studies were performed in 10 mM HEPES, 150 mM NaCl, 3 mM EDTA, and 0.05% v/v Surfactant Tween-20, pH 7.4 (HBS-ET) running buffer at 25° C. The Biacore CM5 sensor chip surface was first derivatized by amine coupling with human Fc specific mouse mAb (REGN2567) to capture different GLP1R mAbs or ATDCs. Different concentrations (100, 90, 33.3, 30, 11.1, 10, 3.7, 3.3 and 1.1 nM) of the N-terminal region of human GLP1R expressed with a myc-myc-hexahistidine tag (“hexahistidine tag” disclosed as SEQ ID NO: 441) (hGLP1R-MMH) prepared in HBS-ET running buffer were injected over the GLP1R mAb captured surface for 240 or 300 sec at a flow rate of 50 μL/min and their dissociation in HBS-ET running buffer was monitored for 10 minutes. […]
The association rate (ka) and dissociation rate (kd) were determined by fitting the real-time binding sensorgrams to a 1:1 binding model with mass transport limitation using Scrubber 2.0c curve-fitting software. […]

HEK293/CRE-Luc cells [5] = test: Flow cytometry cell binding, HEK293/CRE-Luc control cells (Example 18); design: species or system human; settings: Table 30, control cells lacking GLP1R; for EC50: no unit printed in table (text reads values as M); for HEK293/CRE-Luc Flow S/N: signal to noise
Procedure: GLP1R agonist linker payloads were conjugated to anti-GLP1R antibodies via N-terminal heavy or light chain Glutamine (Q) tags. Several resulting anti-GLP1R-GLP1R agonist antibody tethered drug conjugates (ATDCs) and their unconjugated parental antibodies were tested for cell-based binding activity. The cell surface binding of the anti-GLP1R ATDCs to human GLP1R (HEK293/CRE-Luc/hGLP1R), cynomolgus GLP1R (HEK293/CRE-Luc/mfGLP1R), and control cells lacking expression of GLP1R (HEK293/CRE-Luc) was assessed via flow cytometry. For the assay, 61,000-230,000 cells were suspended in PBS, w/2% FBS and 0.2% sodium azide (staining buffer) in 96 well V-bottom plates and incubated for 30 minutes at 4° C. with three-fold serial dilutions of the anti-GLP1R ATDCs, non-binding control ATDCs, or unconjugated anti-GLP1R antibodies. The last well in each row of the plate served as a blank control containing only secondary antibody and was plotted as a continuation of the 3-fold serial dilution. […] Cells were then washed once and stained with a cell viability dye (Live/dead Fixable Green Dead Cell Stain Kit for 488 nm excitation, Molecular Probes cat #L34970) at 1× in PBS for 20 minutes at 4° C. Cells were washed once in staining buffer, fixed for 20 minutes at 4° C. using a 50% solution of Cytofix (BD Biosciences, Cat #554655) diluted in PBS, and washed again in staining buffer. Samples were filtered through Pall 96 well plate PP/PE mesh filter system and collected in Costar 96 well plate. Samples were run on the iQue flow cytometer (Intellicyte) and results were analyzed using Forecyte analysis software (Intellicyte) to calculate the mean fluorescent intensity (MFI) after gating for live cells. EC50 values were determined using a four-parameter logistic equation over a 10-point dose response curve (GraphPad Prism). The signal to noise (S/N) was determined by taking the ratio of the highest MFI on the dose response curve to the MFI in the secondary alone wells.

T1 sequence (P43220 24-139 limits assumed): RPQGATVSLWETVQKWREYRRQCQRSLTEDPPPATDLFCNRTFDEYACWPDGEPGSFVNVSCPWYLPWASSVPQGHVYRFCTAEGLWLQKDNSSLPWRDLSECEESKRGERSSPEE

B1: COMP Anti-GLP1R mAb1-LP4 (conjugate)
heavy: LLQGSGQVTLKESGPGILQPSQTLSLTCSFSGFSLSTSGTGVGWIRQPSGKGLEWLSHIWWDDVKRYNPALKSRLTISRDTSYSQVFLRIASVDTADTATYYCARILDGTGPMDYWGQGTSVTVSSASTKGPSVFPLAPCSRSTSESTAALGCLVKDYFPEPVTVSWNSGALTSGVHTFPAVLQSSGLYSLSSVVTVPSSSLGTKTYTCNVDHKPSNTKVDKRV[human IgG4 Fc with S228P (EU numbers) left out here]
light: QIVLTQSPAIMSASPGEKVTMTCSASSRVTYMHWYQQRSGTSPKRWIYDTSKLASGVPARFSGSGSGTSYSLTISSMEAEDAATYYCQQWGNNPQYTFGGGTRLEIKRRTVAAPSVFIFPPSDEQLKSGTASVVCLLNNFYPREAKVQWKVDNALQSGNSQESVTEQDSKDSTYSLSSTLTLSKADYEKHKVYACEVTHQGLSSPVTKSFNRGEC
blood glucose level, Mean ([1]; day 0): 214
blood glucose level, Mean ([1]; day 3): 144****
blood glucose level, Mean ([1]; day 7): 158*
blood glucose level, Mean ([1]; day 14): 167
blood glucose level, Mean ([1]; day 20): 176
blood glucose level, Mean ([1]; day 28): 197
blood glucose level, Mean ([1]; day 35): 211
blood glucose level, Mean ([1]; day 42): 208
blood glucose level, Mean ([1]; day 49): 215
blood glucose level, Mean ([1]; day 56): 196
percent body weight change from day 0, Mean ([2]; day 0): 0%
percent body weight change from day 0, Mean ([2]; day 3): −8.8%
percent body weight change from day 0, Mean ([2]; day 7): −14.5**** %
percent body weight change from day 0, Mean ([2]; day 14): −19.6**** %
percent body weight change from day 0, Mean ([2]; day 20): −18.0**** %
percent body weight change from day 0, Mean ([2]; day 28): −13.7**** %
percent body weight change from day 0, Mean ([2]; day 35): −11.2*** %
percent body weight change from day 0, Mean ([2]; day 42): −8.3** %
percent body weight change from day 0, Mean ([2]; day 49): −6.5%
percent body weight change from day 0, Mean ([2]; day 56): −5.0%
EC50 (HEK293/CRE-Luc cells [3]): > 20 nM
HEK293/CRE-Luc S/N (HEK293/CRE-Luc cells [3]): 1.6

B2: H4H30452P (antibody, V domains shown)
VH: [about 100 residues left out here]GLIAPRPMGFDYWGQGTLVTVSS
VL: DIQMTQSPSSVSASVGDRVTITCRASQGINSWLAWYQQKPGKAPKLLIYAASSLQSGVPSRFSGSGSGTDFTLTISSLQPEDFATYYCHQADSFPYTFGQGTKLEIK
Ka ([4]; association rate): 218000 M⁻¹ s⁻¹
dissociation rate constant (kd) ([4]; dissociation rate): 0.00118 s⁻¹

B3: REGN8070 unconjugated Ab (antibody)
heavy: QVQLVESGGGVGQPGRSLRLSCAASGFTFSRNAMHWVRQAPGKGLEWVAVISYDGSNKHYADSVKGRFTISRDNSKNTLYLEMNSLRVEDTAVYYCAKGGIPFDYWGQGTLVTVSSASTKGPSVFPLAPCSRSTSESTAALGCLVKDYFPEPVTVSWNSGALTSGVHTFPAVLQSSGLYSLSSVVTVPSSSLGTKTYTCNVDHKPSNTKVDKRV[human IgG4 Fc with S228P (EU numbers) left out here]
light: LLQGSGDIVMTQSPLSSPVTLGQPASISCRSSQSLVHFDGNTYLSWLHQRPGQPPRLLIYKISNRFSGVPDRFSGSGAGTDFTLKISRVEPEDVGVYYCMHATQFPYTFGQGTKLEIKRTVAAPSVFIFPPSDEQLKSGTASVVCLLNNFYPREAKVQWKVDNALQSGNSQESVTEQDSKDSTYSLSSTLTLSKADYEKHKVYACEVTHQGLSSPVTKSFNRGEC
EC50 (HEK293/CRE-Luc cells [5]): > 100 nM
HEK293/CRE-Luc Flow S/N (HEK293/CRE-Luc cells [5]): 1.4

B4: REGN8072 unconjugated Ab (antibody)
heavy: QVQLVESGGGVVQPARSLRLSCAASGFAFSRSAMHWVRQAPGKGLEWVAVISYDGSNKYYTDSVKGRFTISRDNSKNTLYLQMNTLRAEDTALYYCAKMYTTMDSFDYWGQGTLVTVSSASTKGPSVFPLAPCSRSTSESTAALGCLVKDYFPEPVTVSWNSGALTSGVHTFPAVLQSSGLYSLSSVVTVPSSSLGTKTYTCNVDHKPSNTKVDKRV[human IgG4 Fc with S228P (EU numbers) left out here]
light: LLQGSGDIQLTQSPSFLSASVGDRVTITCWASQGISSYLAWYQQKPGKAPKLLIYAASTLQSGVPSRFSGSGSGTEFTLTISSLQPEDFALYYCQQLNSYPRTFGQGTKVEIKRTVAAPSVFIFPPSDEQLKSGTASVVCLLNNFYPREAKVQWKVDNALQSGNSQESVTEQDSKDSTYSLSSTLTLSKADYEKHKVYACEVTHQGLSSPVTKSFNRGEC
EC50 (HEK293/CRE-Luc cells [5]): > 100 nM
HEK293/CRE-Luc Flow S/N (HEK293/CRE-Luc cells [5]): 2.1
